Source: the antibiotic and cytotoxicity screens of Wong et al. (2023)
The other results are listed elsewhere or left out.

What follows are compounds tested on HepG2 (assay: cytotoxicity call (relative viability < 0.9)). Conditions: 10 µM.

SMILES | cytotoxicity call
CC(=O)N1Cc2cc(C(=O)NCc3cc(F)cc(F)c3)nc(-c3cccc(C4=CCCC4)c3)c2[C@H]1CCO | inactive
CN1CCN(C(=O)C[C@H]2CC[C@H]3[C@@H](COC[C@@H](O)CN3C(=O)C3CCOCC3)O2)CC1 | inactive
C[C@H](CO)N1C[C@H](C)[C@@H](CN(C)S(=O)(=O)c2cccs2)Oc2ccc(NS(=O)(=O)c3cccs3)cc2CC1=O | active
COc1ccc(NC(=O)N(C)C[C@H]2OCCCC[C@@H](C)Oc3ccc(NS(=O)(=O)c4ccc(C)cc4)cc3C(=O)N([C@@H](C)CO)C[C@@H]2C)cc1 | inactive
CN(C)c1cc(NC(=O)CNC(C)(C)C)c(O)c2c1C[C@H]1C[C@H]3[C@H](N(C)C)C(=O)C(C(N)=O)=C(O)[C@@]3(O)C(=O)[C@H]1C2=O | inactive
COc1ccc(CN(C)C[C@@H]2OCCCC[C@H](C)Oc3ccc(NS(=O)(=O)c4ccc(C)cc4)cc3C(=O)N([C@@H](C)CO)C[C@H]2C)cc1 | inactive
C#CCN(O[C@@H](/C=C/[C@@H](O)CCn1cc(-c2ccc(C(=O)NO)s2)nn1)C1CC1)[C@@H](Cc1ccccc1)C(=O)OC | inactive
C=COCCCCO | inactive
C[C@@H]1CCCCO[C@@H](CN(C)S(C)(=O)=O)[C@@H](C)CN([C@H](C)CO)C(=O)c2cc(NS(=O)(=O)c3ccccc3)ccc2O1 | inactive
CC(=O)N1[C@H](C(=O)N2CCc3ccccc3C2)[C@@H](CO)[C@@H]2Cn3c(cccc3=O)[C@@H]21 | inactive
C[C@@H]1CCCCO[C@H](CN(C)C(=O)Nc2ccccc2)[C@H](C)CN([C@@H](C)CO)C(=O)c2cc(NS(=O)(=O)c3ccc(F)cc3)ccc2O1 | inactive
C[C@H](CO)N1C[C@H](C)[C@H](CN(C)Cc2ccc(-c3ccccc3)cc2)Oc2ccc(NC(=O)CCC(F)(F)F)cc2C1=O | active
Cc1cn(CCN2CCN(c3ccccc3-c3cc(C#N)cc(C(=O)NCCCN4CCCC4)c3)CC2)c2ccccc12 | active
C[C@@H]1CN([C@@H](C)CO)C(=O)c2cc(N(C)C)ccc2O[C@@H](C)CCCCO[C@@H]1CN(C)S(=O)(=O)c1cn(C)cn1 | inactive
CCC(C)C1OC2(C=CC1C)CC1CC(CC=C(C)C(OC3CC(OC)C(OC4CC(OC)C(NC(C)=O)C(C)O4)C(C)O3)C(C)C=CC=C3COC4C(O)C(C)=CC(C(=O)O1)C34O)O2 (centres undefined) | inactive
Cc1ccc(O)c(-c2cc(-c3ccc(C(C)(C)C)cc3)[nH]n2)c1 | inactive
Cc1onc(C(=O)N2CCOCC2)c1[N+](=O)[O-] | inactive
COc1ccc2c3c([nH]c2c1)[C@H](CO)N(Cc1ccc(cc1)Cl)C[C@]13CCN(CCc2ccccc2)CC1 | active
O=C(C[C@H]1C[C@@H]2c3cc(NS(=O)(=O)c4ccc(F)cc4)ccc3O[C@@H]2[C@@H](CO)O1)NCc1cccc(F)c1 | inactive
C[C@H](CO)N1C[C@H](C)[C@@H](CN(C)S(=O)(=O)c2cn(C)cn2)Oc2ccc(NS(=O)(=O)c3cn(C)cn3)cc2C1=O | inactive
COCC(=O)N1CCO[C@@H]2[C@H]1CC[C@H]2OC | inactive
Cc1ccc(S(=O)(=O)Nc2ccc3c(c2)C(=O)N([C@H](C)CO)C[C@H](C)[C@H](CN(C)C(=O)Nc2ccc(F)cc2)OCCCC[C@H](C)O3)cc1 | inactive
C[C@H]1CN([C@@H](C)CO)C(=O)Cc2cc(NC(=O)Nc3cccc4ccccc34)ccc2O[C@H]1CN(C)S(=O)(=O)c1cccs1 | inactive
CC[C@@H](C)CCCC(=O)N[C@@H](CCN)C(=O)N[C@H](C(=O)N[C@@H](CCN)C(=O)N[C@H]1CCNC(=O)[C@H]([C@@H](C)O)NC(=O)[C@H](CCN)NC(=O)[C@H](CCN)NC(=O)[C@H](CC(C)C)NC(=O)[C@@H](CC(C)C)NC(=O)[C@H](CCN)NC1=O)[C@@H](C)O | inactive
COc1ccc(CN(C)C[C@@H]2Oc3ccc(NC(=O)Cn4cnnn4)cc3C(=O)N([C@H](C)CO)C[C@H]2C)cc1 | inactive
COc1ccc(CN(C)C[C@H]2Oc3ccc(NC(=O)CCCCCC(=O)Nc4ccccc4N)cc3CC(=O)N([C@H](C)CO)C[C@H]2C)cc1 | inactive
O=C1O[C@@H](c2ccccc2)[C@@H](c2ccccc2)N2[C@@H](c3ccc(O)cc3)[C@]3(C(=O)Nc4ccccc43)[C@@H](C(=O)N3CCCCCCC3)[C@H]12 | inactive
O[C@H]([C@H](O)[C@@H]1CO1)[C@H]1CO1 | inactive

Each compound was assayed on S. aureus RN4220 (assay: growth inhibition call (relative growth <= 0.2)). Conditions: 50 µM.

SMILES | growth inhibition call
C[C@@H]1CCCCO[C@@H](CN(C)C(=O)Nc2ccc(F)cc2)[C@H](C)CN([C@@H](C)CO)C(=O)c2cc(NC(=O)Nc3ccc(C(F)(F)F)cc3)ccc2O1 | inactive
CCCC#Cc1cnc2c(c1)C(=O)N([C@H](C)CO)C[C@@H](C)[C@H](CN(C)C(=O)c1ccc3c(c1)OCO3)O2 | inactive
C[C@@H]1CN([C@@H](C)CO)C(=O)c2cccc(NS(=O)(=O)c3ccc(Cl)cc3)c2O[C@H]1CN(C)Cc1ccc(Cl)c(Cl)c1 | inactive
Nc1ccc(Oc2ccccc2)cc1 | inactive
COc1ccc(CN(C)C[C@H]2Oc3ccc(NC(=O)Cn4cnnn4)cc3CC(=O)N([C@@H](C)CO)C[C@@H]2C)cc1 | inactive
CNC[C@H]1OCCCC[C@H](C)Oc2ccc(NC(=O)Nc3cccc4ccccc34)cc2C(=O)N([C@H](C)CO)C[C@@H]1C | inactive
COc1ccc(S(=O)(=O)Nc2ccc3c(c2)C(=O)N([C@H](C)CO)C[C@@H](C)[C@@H](CN(C)S(=O)(=O)c2ccc(C)cc2)O3)cc1 | inactive
CC(=O)Oc1ccn(C)c(=O)c1C#N | inactive
C[C@H](CO)N1C[C@H](C)[C@H](CN(C)C(=O)Nc2ccc(C(F)(F)F)cc2)Oc2c(NC(=O)c3ccc(-c4nccs4)cc3)cccc2C1=O | inactive
CC(CN1CC(=O)NC(=O)C1)N1CC(=O)NC(=O)C1 (centres undefined) | inactive
O=C(CN1CCOCC1)NCC[C@@H]1CC[C@H](NS(=O)(=O)c2ccc(Cl)cc2)[C@@H](CO)O1 | inactive
C[C@@H]1CN([C@@H](C)CO)C(=O)c2cccc(NC(=O)c3cnccn3)c2O[C@@H]1CN(C)S(=O)(=O)c1ccccc1 | inactive
CC(=O)N1Cc2cc(C(=O)NCc3cc(F)cc(F)c3)nc(-c3cccc(C4=CCCC4)c3)c2[C@H]1CCO | inactive
CN1CCN(C(=O)C[C@H]2CC[C@H]3[C@@H](COC[C@@H](O)CN3C(=O)C3CCOCC3)O2)CC1 | inactive
C[C@H](CO)N1C[C@H](C)[C@@H](CN(C)S(=O)(=O)c2cccs2)Oc2ccc(NS(=O)(=O)c3cccs3)cc2CC1=O | inactive
COc1ccc(NC(=O)N(C)C[C@H]2OCCCC[C@@H](C)Oc3ccc(NS(=O)(=O)c4ccc(C)cc4)cc3C(=O)N([C@@H](C)CO)C[C@@H]2C)cc1 | inactive
CN(C)c1cc(NC(=O)CNC(C)(C)C)c(O)c2c1C[C@H]1C[C@H]3[C@H](N(C)C)C(=O)C(C(N)=O)=C(O)[C@@]3(O)C(=O)[C@H]1C2=O | inactive
COc1ccc(CN(C)C[C@@H]2OCCCC[C@H](C)Oc3ccc(NS(=O)(=O)c4ccc(C)cc4)cc3C(=O)N([C@@H](C)CO)C[C@H]2C)cc1 | inactive

SMILES | growth inhibition call
C#CCN(O[C@@H](/C=C/[C@@H](O)CCn1cc(-c2ccc(C(=O)NO)s2)nn1)C1CC1)[C@@H](Cc1ccccc1)C(=O)OC | inactive
C=COCCCCO | inactive
C[C@@H]1CCCCO[C@@H](CN(C)S(C)(=O)=O)[C@@H](C)CN([C@H](C)CO)C(=O)c2cc(NS(=O)(=O)c3ccccc3)ccc2O1 | inactive
CC(=O)N1[C@H](C(=O)N2CCc3ccccc3C2)[C@@H](CO)[C@@H]2Cn3c(cccc3=O)[C@@H]21 | inactive
C[C@@H]1CCCCO[C@H](CN(C)C(=O)Nc2ccccc2)[C@H](C)CN([C@@H](C)CO)C(=O)c2cc(NS(=O)(=O)c3ccc(F)cc3)ccc2O1 | inactive
C[C@H](CO)N1C[C@H](C)[C@H](CN(C)Cc2ccc(-c3ccccc3)cc2)Oc2ccc(NC(=O)CCC(F)(F)F)cc2C1=O | inactive
Cc1cn(CCN2CCN(c3ccccc3-c3cc(C#N)cc(C(=O)NCCCN4CCCC4)c3)CC2)c2ccccc12 | inactive
C[C@@H]1CN([C@@H](C)CO)C(=O)c2cc(N(C)C)ccc2O[C@@H](C)CCCCO[C@@H]1CN(C)S(=O)(=O)c1cn(C)cn1 | inactive
CCC(C)C1OC2(C=CC1C)CC1CC(CC=C(C)C(OC3CC(OC)C(OC4CC(OC)C(NC(C)=O)C(C)O4)C(C)O3)C(C)C=CC=C3COC4C(O)C(C)=CC(C(=O)O1)C34O)O2 (centres undefined) | inactive
Cc1ccc(O)c(-c2cc(-c3ccc(C(C)(C)C)cc3)[nH]n2)c1 | inactive
Cc1onc(C(=O)N2CCOCC2)c1[N+](=O)[O-] | inactive
COc1ccc2c3c([nH]c2c1)[C@H](CO)N(Cc1ccc(cc1)Cl)C[C@]13CCN(CCc2ccccc2)CC1 | inactive
O=C(C[C@H]1C[C@@H]2c3cc(NS(=O)(=O)c4ccc(F)cc4)ccc3O[C@@H]2[C@@H](CO)O1)NCc1cccc(F)c1 | inactive
C[C@H](CO)N1C[C@H](C)[C@@H](CN(C)S(=O)(=O)c2cn(C)cn2)Oc2ccc(NS(=O)(=O)c3cn(C)cn3)cc2C1=O | inactive
COCC(=O)N1CCO[C@@H]2[C@H]1CC[C@H]2OC | inactive
Cc1ccc(S(=O)(=O)Nc2ccc3c(c2)C(=O)N([C@H](C)CO)C[C@H](C)[C@H](CN(C)C(=O)Nc2ccc(F)cc2)OCCCC[C@H](C)O3)cc1 | inactive
C[C@H]1CN([C@@H](C)CO)C(=O)Cc2cc(NC(=O)Nc3cccc4ccccc34)ccc2O[C@H]1CN(C)S(=O)(=O)c1cccs1 | inactive
CC[C@@H](C)CCCC(=O)N[C@@H](CCN)C(=O)N[C@H](C(=O)N[C@@H](CCN)C(=O)N[C@H]1CCNC(=O)[C@H]([C@@H](C)O)NC(=O)[C@H](CCN)NC(=O)[C@H](CCN)NC(=O)[C@H](CC(C)C)NC(=O)[C@@H](CC(C)C)NC(=O)[C@H](CCN)NC1=O)[C@@H](C)O | inactive
